Laboratory results from article PMC4336329 (PLoS ONE, 2015).
Among all 310,000 compounds or so, about 2,200 (0.71%) showed an effect of 50% or more. Effects have a minus sign here. Some of the results follow.

target: human ether-à-go-go-related gene (hERG) potassium channel (human, UniProt Q12809); assay: primary screen, population patch clamp on CHO cells stably expressing hERG
Sequence (Q12809 whole entry, looked up): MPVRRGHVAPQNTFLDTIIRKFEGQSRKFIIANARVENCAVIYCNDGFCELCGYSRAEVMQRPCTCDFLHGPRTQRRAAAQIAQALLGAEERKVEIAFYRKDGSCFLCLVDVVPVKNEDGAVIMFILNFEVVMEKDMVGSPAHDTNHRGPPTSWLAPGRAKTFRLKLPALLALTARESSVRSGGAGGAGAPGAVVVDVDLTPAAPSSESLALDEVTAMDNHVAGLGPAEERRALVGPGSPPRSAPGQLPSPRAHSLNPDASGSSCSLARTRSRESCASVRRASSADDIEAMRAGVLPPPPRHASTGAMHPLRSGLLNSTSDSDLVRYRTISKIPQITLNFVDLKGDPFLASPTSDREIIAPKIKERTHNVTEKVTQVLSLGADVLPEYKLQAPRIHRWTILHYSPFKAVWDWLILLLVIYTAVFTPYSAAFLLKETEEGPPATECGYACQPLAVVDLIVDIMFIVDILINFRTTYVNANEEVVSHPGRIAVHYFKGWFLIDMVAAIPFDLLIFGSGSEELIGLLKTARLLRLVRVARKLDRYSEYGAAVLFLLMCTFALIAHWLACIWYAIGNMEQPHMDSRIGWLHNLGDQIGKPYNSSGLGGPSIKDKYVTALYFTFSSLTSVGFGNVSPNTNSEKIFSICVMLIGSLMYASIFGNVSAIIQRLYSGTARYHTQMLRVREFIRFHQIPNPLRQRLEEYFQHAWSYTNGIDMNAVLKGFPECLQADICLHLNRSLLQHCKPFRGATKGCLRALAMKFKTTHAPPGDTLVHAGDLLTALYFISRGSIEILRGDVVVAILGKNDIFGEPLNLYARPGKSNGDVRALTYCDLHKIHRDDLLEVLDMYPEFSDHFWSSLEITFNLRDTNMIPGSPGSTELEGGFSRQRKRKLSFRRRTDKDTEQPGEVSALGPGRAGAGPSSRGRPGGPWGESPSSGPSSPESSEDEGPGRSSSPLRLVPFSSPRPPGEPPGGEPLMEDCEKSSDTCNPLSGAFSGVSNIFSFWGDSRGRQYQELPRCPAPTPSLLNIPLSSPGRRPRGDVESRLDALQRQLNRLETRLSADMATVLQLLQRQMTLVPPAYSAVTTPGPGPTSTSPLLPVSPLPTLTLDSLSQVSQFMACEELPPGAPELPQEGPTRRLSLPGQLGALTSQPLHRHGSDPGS

Compound | hERG current change (%, negative = inhibition) at 1uM [%]
O=C(COc1ccccc1)NCc1cccs1 | 4.09
O=C(CCSCCc1ccccn1)Nc1ccc(Cl)cn1 | -7.62
COc1ccc2[nH]cc(CCN=C(N)N)c2c1.I | 11
COC(=O)c1cc(C)nc(Sc2ccccc2N)n1 | 11.6
O=c1oc2ccccc2cc1-c1csc(Nc2ccc(O)cc2)n1 | 14.7
CC(=O)Nc1nc2n(n1)C(c1ccc(F)cc1)C=C(c1ccccc1)N2 (stereo not shown) | 10.2
CCOC(=O)COc1ccccc1/C=C1\NC(=O)NC1=O | 3.95
CCOC(=O)c1cnc(SCC(=O)Nc2ccc(NC(=O)CC)c(OC)c2)nc1N | 7.77
COc1ccc(-c2nc(CSCC(=O)N3CCC4(CC3)OCCO4)c(C)o2)cc1OC | 7.31
CSc1cccc(NC(=S)N(CCC(C)C)C2CCN(C(C)C)CC2)c1 | -3.15
Cc1[nH]c(C)c(S(=O)(=O)Nc2ccccc2Cl)c1C(=O)N1CCCC1 | 16.6
Cc1cnc(C(=O)N2CCCC(C(=O)c3ccc(C(F)(F)F)cc3)C2)cn1 (stereo not shown) | -0.362
CCOC(=O)C1CCN(c2ncnc3cc(OC)c(OC)cc23)CC1 | 5.75
CCOc1ccc(CO/N=C/c2c(C)[nH]c(=O)[nH]c2=O)cc1 | 14.2
COc1ccc(C(=O)Nc2cccc(C(C)=O)c2)cc1S(=O)(=O)N1CCOCC1 | 1.24
CCOC(=O)C(c1ccccc1)C(Nc1ccc(F)cc1)c1ccccn1 (stereo not shown) | 11.8
O=C1CCCC2=C1C(c1cccnc1)Nc1ccccc1N2 (stereo not shown) | 10.5
CC(C)c1ccc(N(CC(=O)NCCSC(C)(C)C)S(C)(=O)=O)cc1 | 8.69
O=C(Nc1cc(Cl)ccc1N1CCOCC1)c1cc2ccccc2o1 | 8.14
CC(O)[C@H]1CC[C@H]2[C@@H]3CC[C@H]4C[C@@H](O)CC[C@]4(C)[C@H]3C(=O)C[C@]12C (stereo partly shown) | -13.2
OC(c1ccccc1)(c1ccc(Cl)cc1)C1CN2CCC1CC2 (stereo not shown) | -11.9
COc1ccccc1NC(=O)Cn1nnc(C(=O)NCc2ccc3c(c2)OCO3)c1N | 4.97
COc1cc2cc(CN(Cc3cccnc3)C(=O)NCc3ccccc3)c(=O)[nH]c2cc1OC | 8.58

Compound | hERG current change (%, negative = inhibition) at 1uM [%]
CC(C)C[C@H](NC(=O)N1CC(=O)Nc2ccccc21)C(=O)N1CCC(C(=O)O)CC1 | 19
CCOC(=O)c1nn(-c2ccc3c(c2)OCCO3)cc1O | 5.16
Cc1ccc(Cl)c(NC(=O)CN2CCNC(=O)C2)c1Cl | 6.94
C/C=C(/C)C(=O)O[C@@H]1c2cc3c(c(OC)c2-c2c(cc(OC)c(OC)c2OC)[C@@H](OC(C)=O)[C@@H](C)[C@H]1C)OCO3 | 3.17
CSC1=NCCN1C(=O)Cc1ccc(F)cc1 | 1.07
Cc1nc(N2CCOCC2)sc1C(=O)NN | 11.6
Cc1ccc(C(=O)NCCc2ccc(S(=O)(=O)N3CCCC3)cc2)cc1 | 17.8
COc1ccc(C(=O)N2CCN(c3cccc(Cl)c3)CC2)cc1S(=O)(=O)NC1CC1 | -79.6
Cc1cc(C)n(CC(=O)NNC(=O)CCCOc2ccc(Cl)c(C)c2)n1 | 9.81
COc1ccc(N/C=C2\C(=O)c3c(sc(C)c3C)N(C)S2(=O)=O)cc1 | 11.6
CCOc1ccc(C(=O)NCC(=O)OC2CCOC2=O)cc1OCC (stereo not shown) | 12.5
O=C(NCc1ccc2[nH]c3c(c2c1)CCCC3)c1ccc(S(=O)(=O)N2CCCCC2)cc1 | 14.5
CCOC(=O)N1CCc2c(sc3nc4n(c(=O)c23)N=C(C)CS4)C1 | 2.24
COc1ccc(NC(=O)CNS(=O)(=O)c2cccs2)cc1 | 7.23
CC(=O)C1(O)C(C)CC2C3CCC4CC(O)CCC4(C)C3=CCC21C (stereo not shown) | 13.6
Cc1ccc(NC(=O)CCc2nc3ccccc3c(=O)[nH]2)cc1S(=O)(=O)N1CCOCC1 | 18.4
COc1cc2ccccc2cc1C(=O)N1CCN(C)CC1.Cl | 1.81
O=C(NNC(=O)C1CC1c1ccccc1)c1ccccc1F (stereo not shown) | 23.1
CN(C)C=O.O=C(/C=C/c1cccs1)Nc1ccc(N2CCOCC2)c(S(=O)(=O)Nc2cc(Cl)ccc2Cl)c1 | 13.4
Cc1cc(NC(=O)C2CCC2)n(-c2ccccn2)n1 | 9.33
Cc1ccc(CNC(=O)Nc2ccc(C)cc2)cc1 | 5.3
CN1CCN(CCC(=O)Nc2ccc3c(c2)OCO3)CC1 | 9.02
CC(=O)Nc1ccc(NS(C)(=O)=O)cc1 | 8.76

Compound | hERG current change (%, negative = inhibition) at 1uM [%]
COC(=O)c1nc2ccc(N3CCOCC3)cc2c(C)c1C(=O)OC | -7.06
CCCC(CCC)C(=O)Nc1ccncc1 | 4.14
CCOC1=CC(=O)N(Cc2ccccc2)C1 | 13.4
CCOc1ccccc1Nc1ncccc1C(=O)O | 6.65
Cc1cccc(NC(=O)NC(=O)c2ccccc2)n1 | 6.79
CCc1ccc(NC(=O)Nc2cc(C(=O)O)ccc2N2CC3CC(C2)c2cccc(=O)n2C3)cc1 (stereo not shown) | 19.5
Cc1cc(C(=O)CSc2nnc(-c3ccc(F)cc3)o2)c(C)n1CC1COc2ccccc2O1 (stereo not shown) | 11.8
COc1ccc(C)cc1N(CC(=O)NC(C)c1ccccc1)S(C)(=O)=O (stereo not shown) | -0.598
NC(=O)CSc1ncnc2c1nnn2Cc1ccc(F)cc1 | 7.63
CCOc1ccc2oc(C(=O)Nc3ccc(N4CCOCC4)cc3)c(C)c2c1 | 6.5
COC(=O)[C@H]1C[C@@H](c2ccccc2)[C@H](C)C1(C)C | 15.3
CC(C)(C)OC(=O)CNC(=O)c1nc[nH]c1C(=O)N1CCN(c2ccccc2)CC1 | 3.09
Cc1nnc(NC(=O)c2cc(-c3ccco3)nc3ccccc23)s1 | 8.32
CC1CCCCN1CC(O)COc1ccc(OCC(O)CN2CCCCC2C)cc1 (stereo not shown) | 13.5
Cc1cc(-c2nc(C)c(C(=O)NNS(=O)(=O)c3ccc(Cl)cc3Cl)s2)no1 | 7.93
CC(C)CCOc1ccc(C(=O)C[N+]2(C)CCOCC2)cc1.[I-] | 8.81
COC(=O)C1=C(C)N(CC2CCCO2)C(=O)C1 (stereo not shown) | 0.685
CN(Cc1cnn(C)c1)C(=O)C1CCC(=O)N(Cc2cccc(F)c2)C1 (stereo not shown) | -26.9
Cn1c(SCC(=O)Nc2ccc(Br)cc2F)nnc1-c1ccco1 | 5.26
CCCNC(=O)C1=C(C)C(=O)OC12CCC(C)CC2 (stereo not shown) | 4.85
CCN1N=C(c2ccccc2)Cn2c1nc1ccccc12 | -8.48
Cc1ccc(OCC(=O)O/N=C(\N)c2ccccn2)cc1 | 3.91
O=C(O)c1ccc(CNC(=O)C23CC4CC(CC(C4)C2)C3)cc1 | 20.9

Compound | hERG current change (%, negative = inhibition) at 1uM [%]
Cc1ccc(S(=O)(=O)N(C)C)cc1NC(=O)COC(=O)C1CC1 | 17.3
C/C(=N/NC(=O)CNC(=O)c1ccccn1)c1ccccc1 | 7.7
Cc1ccc(NC(=O)C2CCN(S(=O)(=O)c3cccs3)CC2)cc1 | -9.36
O=C(NCCc1ccccc1C(F)(F)F)C1CCC(=O)N(C2CC2)C1 (stereo not shown) | 0.207
Cc1onc(-c2ccccc2)c1C(=O)OCCOc1ccccc1F | 9.61
O=C(Nc1cccc2ccccc12)C1CCN(C(=O)NCc2ccccc2)CC1 | 12.2
O=C(c1ccco1)N1CCN(c2nc(C(F)(F)F)nc3c2nnn3Cc2ccccc2)CC1 | -2.44
CCCc1cc(=O)[nH]c(Nc2ccc(N3CCCCC3)cc2)n1 | -12.4
Clc1ccccc1N1CCN(Cc2ccc(Br)o2)CC1 | 7.76
CSc1cc(C)[nH]c(=O)n1 | 9.91
CS(=O)(=O)NCCCNc1ccc(Cl)cc1[N+](=O)[O-] | 3.06
O=C(/C=C/c1ccccc1)NC(=S)Nc1ccccc1C(=O)NC1CCCCC1 | -1.37
COc1cc(OC)c(NC(=S)Nc2cccc(C(C)=O)c2)cc1Cl | 6.24
O=C(NCc1ccccn1)c1cccc(NS(=O)(=O)c2ccc(Br)cc2)c1 | 8.69
O=C(NC(=S)Nc1ccccc1N1CCN(C(=O)c2ccccc2)CC1)c1cccs1 | 11.1
CCOCCCNC(=O)c1ccc(C2SCC(=O)N2Cc2ccccc2)cc1 (stereo not shown) | 15
CCCC(=O)OC1CC(C)N(C(=O)c2ccccc2)c2ccc(C)cc21 (stereo not shown) | 13.2
CCCCOC(=O)C1CN(c2ccccc2)N=C1C(C)=O (stereo not shown) | 12.5
CCCC1(C(=O)OC)NC(c2ccco2)C2C(=O)N(c3ccc(C)cc3)C(=O)C21 (stereo not shown) | 16.2
Cc1ccc(Nc2cc(C)nc3ncnn23)c(C)c1 | 13.4
COc1cccc(-n2nnc3c(=O)n(Cc4ccc(C)cc4)cnc32)c1 | 15.2
Cc1cc(NC(=O)CCC(=O)N(Cc2ccco2)C2(C(=O)NC3CCCCC3)CCCCC2)no1 | 9.45
